Measurements reported in PubChem BioAssay AID757 (NMMLSC, 2007).
Among all 190,000 compounds or so, about 520 (0.27%) were called active. Inconclusive results, whose numbers are uncertain, are shown with a selection of clear calls.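 The calls were made as follows: active = GTP binding activity at least 20 points away from the 100% control level, either lower or higher; inconclusive = compound flagged as likely green fluorescent, judged across all proteins; inactive = the rest.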

These compounds were tested against Ras-related C3 botulinum toxin substrate 1 (Homo sapiens) (UniProt P63000) (assay: wildtype Rac1 GTP binding modulators, primary screen, biochemical, GST-Rac1 beads, flow cytometry, multiplex (AID 757)). Conditions: fluorescent GTP binding, at 10 µM, actives lie on both sides, 0 = cold GTP competed, 100 = untreated.

Row | Structure (SMILES) | GTP binding activity (% of control)
1 | CCCC(=O)NCn1nnc(-c2ccc(Cl)cc2)n1 | inconclusive: 181%
2 | Cc1nnc(NC(=O)c2ccccc2F)s1 | inconclusive: 90%
3 | CC(=O)Nc1ccc(S(=O)(=O)NC2=C(N3CCN(c4ccc(F)cc4)CC3)C(=O)c3ccccc3C2=O)cc1 | inconclusive: 95%
4 | CCN(Cc1cnn(C)c1)C(=O)c1ccc(OC2CCN(S(=O)(=O)N(C)C)CC2)cc1 | inconclusive: 95%
5 | CC(=O)Nc1ccc(NC(=O)C2CCCN2C(=O)Nc2ccccc2[N+](=O)[O-])cc1 (stereo not drawn) | inconclusive: 93%
6 | Cn1c(CN2CCCC(C(=O)c3ccc4c(c3)OCO4)C2)nc2ccccc21 (stereo not drawn) | inactive: 94%
7 | Cc1cnc(C(=O)N2CCCC(C(=O)c3ccc(C(F)(F)F)cc3)C2)cn1 (stereo not drawn) | inactive: 100%
8 | Cc1cc(C)c(S(=O)(=O)N2CCCOC2CNC(=O)C(=O)NCc2ccncc2)c(C)c1 (stereo not drawn) | inactive: 105%
9 | O=C(O)c1ccc(Oc2ccc(C(F)(F)F)cn2)cc1 | inconclusive: 93%
10 | CC1C2CC(C(S(=O)(=O)N3CCOCC3)C2=O)C1(C)C (stereo not drawn) | inconclusive: 105%
11 | O=c1[nH]c(=O)c2cc([N+](=O)[O-])cc([N+](=O)[O-])c2[nH]1 | inconclusive: 84%
12 | O=c1c2cccc3c2c(nn1-c1ccccc1)-c1ccccc1-3 | inconclusive: 93%
13 | CCCCN1CNC(=S)N(c2cc(C)ccc2C)C1 | inconclusive: 110%
14 | O=c1[nH]c(=O)c2nnc(N/N=C\c3ccc(O)cc3)nc2[nH]1 | active: 54%
15 | C/C(CC(=O)Nc1cccc(C(F)(F)F)c1)=N\NC(=O)Cc1ccccc1 | inconclusive: 96%
16 | C=CCc1c(C)nc(N)[nH]c1=O | inactive: 105%
17 | O=C(c1cccc(S(=O)(=O)N2CCOCC2)c1)N1CCCCCC1 | inconclusive: 104%
18 | COc1cccc2c(SCC(=O)N/N=C/c3ccc(O)c(O)c3)cc(C)nc12 | active: 65%
19 | COc1ccc(NC(=S)N(CCN(C)C)C(C)c2ccco2)cc1Cl (stereo not drawn) | inconclusive: 127%
20 | O=[N+]([O-])c1ccc(N/N=C/c2ccc[nH]2)cc1 | inactive: 105%
21 | O=C(O)c1cn(CCOc2ccccc2Cl)c2ccccc12 | active: 121% [activator]
22 | CCOc1ccccc1CN(CCc1ccc2c(c1)OCO2)Cc1ccccn1 | inconclusive: 108%
23 | COc1ccc(CNCC(O)(c2ccc(F)cc2)c2ccc(F)cc2)cc1 | inactive: 103%
24 | COc1cc(/C=N/NC(=O)c2ccncc2)ccc1OC(=O)c1ccccc1Cl | inconclusive: 98%

Row | Structure (SMILES) | GTP binding activity (% of control)
25 | COC(=O)CN1C(=O)C2(C(C#N)=C(N)Oc3n[nH]c(-c4cccs4)c32)c2ccccc21 (stereo not drawn) | inconclusive: 91%
26 | S=C(NCCc1ccccc1)N1CCn2cccc2C1c1cccnc1 (stereo not drawn) | active: 78%
27 | Cc1cccc2sc(NNC(=O)c3cc(=O)c4ccccc4o3)nc12 | inactive: 81%
28 | COC(=O)c1cc(OC)c(OC)cc1NC(=S)N1CCN(C/C=C/c2ccccc2)CC1 | inconclusive: 92%
29 | COc1ccc(CC(=O)NNS(=O)(=O)c2ccccc2)cc1OC | inconclusive: 111%
30 | CCCCCCCCCCCC(=O)c1c(O)cccc1O | inactive: 83%
31 | O=C(Oc1ccc(OC(=O)c2ccco2)c(S(=O)(=O)c2ccc(Br)cc2)c1)c1ccco1 | inconclusive: 95%
32 | O=C(NCc1nc2ccccc2[nH]1)c1cccc(S(=O)(=O)N2CCOCC2)c1 | inconclusive: 105%
33 | COc1cc2[nH]c(=S)nc(NCC3CCCO3)c2cc1OC (stereo not drawn) | active: 74%
34 | O=C(c1ccccc1)c1c(O)nc(-c2ccccc2)n(-c2ccccc2)c1=O | inconclusive: 93%
35 | O=c1c2cn[nH]c2[nH]c(=S)n1-c1ccccc1 | inconclusive: 105%
36 | Brc1cccc(-c2nnc3sc(CN4CCCCC4)cn23)c1 | inconclusive: 108%
37 | O=C(NCc1ccc(F)cc1)c1ccc(Br)o1 | inactive: 96%
38 | O=C(Nc1ccc(N2CCOCC2)cc1)Nc1ccc2nc(-c3ccco3)c(-c3ccco3)nc2c1 | inconclusive: 94%
39 | COc1cccc(NC(=O)CSc2nc3c([nH]c4ccccc43)c(=O)n2C)c1 | active: 123% [activator]
40 | COC(=O)[C@@H](NC(=O)/C=C/c1ccc(OC)cc1)C(C)C | inconclusive: 98%
41 | O=C(CN1C(=O)C2C3c4ccccc4C(c4ccccc43)C2C1=O)Nc1cccc(C(=O)O)c1 (stereo not drawn) | active: 130% [activator]
42 | COc1ccc(N(CC(=O)NN=C2CCCC2)S(=O)(=O)c2ccccc2)cc1 | inconclusive: 107%
43 | NC(=O)COC(=O)c1cccc2c1-c1ccccc1C2=O | active: 72%
44 | N#Cc1c2nc3ccccc3nc2n2cc(NC(=O)c3ccc(F)cc3)ccc12 | active: 79%
45 | O=C(Cn1cnc2c(nnn2Cc2ccccc2)c1=O)NCC1CCCO1 (stereo not drawn) | inactive: 110%
46 | Cn1c(SCc2ccccc2)nnc1-c1ccc2c(c1)OCO2 | inconclusive: 102%
47 | COc1cc(-c2csc(CCn3nc(C)cc3C)n2)cc(OC)c1OC | inconclusive: 108%
48 | O=C(NCC1CCCO1)c1onc(CSc2ccccc2)c1C(=O)O (stereo not drawn) | inconclusive: 94%

Row | Structure (SMILES) | GTP binding activity (% of control)
49 | CN(CC1COc2ccccc2O1)C(=O)c1ccc(N(C)C)cc1 (stereo not drawn) | inconclusive: 94%
50 | O=C(COC(=O)c1ccccc1NC(=O)c1ccco1)NC1CCS(=O)(=O)C1 (stereo not drawn) | inconclusive: 92%
51 | COC(=O)C1=C(C)NC(=O)/C1=C\c1cc(C)n(-c2ccccc2C)c1C | inactive: 102%
52 | Cc1ccc(NC(=O)CSCc2n[nH]c(=O)[nH]2)c(Br)c1 | inactive: 102%
53 | COc1ccc(OC)c(C(=O)CN2C(=O)NC(C)(c3ccccc3)C2=O)c1 (stereo not drawn) | inconclusive: 109%
54 | Cc1ncc(CSc2nnnn2-c2ccccc2)c(N)n1 | inactive: 107%
55 | Cc1ccc(Nc2c(F)c(F)c(F)c(F)c2C(=O)O)c(C)c1 | active: 154% [activator]
56 | COc1ccc2c(Cl)c(-c3nnco3)sc2c1 | inconclusive: 96%
57 | CCC(=O)c1ccc(OCC(=O)O)c(OC)c1 | active: 122% [activator]
58 | CCOc1ccc(S(=O)(=O)NC2CC2)cc1C(N)=O | inactive: 98%
59 | COc1ccc2cc(C#N)c(SCC(=O)N3CCCC3)nc2c1 | inconclusive: 95%
60 | COc1ccc(-c2nn3c(-c4ccco4)nnc3s2)cc1OC | active: 70%
61 | Cc1noc(/C=C/c2ccc(-c3ccccc3Cl)o2)c1[N+](=O)[O-] | inconclusive: 133%
62 | CCSc1nc2ccc(C)cc2cc1C#N | inconclusive: 92%
63 | Cc1cc([N+](=O)[O-])ccc1N=Nc1c(N)[nH]n(-c2ccccc2)c1=O | active: 78%
64 | Cc1c(CN2CCCCC2)c(O)n(CCO)c(=O)c1C#N | inactive: 94%
65 | Cc1cc(C(=O)Cn2nc(C(=O)O)c3ccccc3c2=O)c(C)n1-c1ccc(OC(F)F)cc1 | inactive: 90%
66 | CCOC(=O)c1sc2nc(-c3cccnc3)ccc2c1N | inconclusive: 93%
67 | O=C(N/N=C/c1ccc(COc2ccc(Br)cc2)o1)c1ccco1 | inconclusive: 84%
68 | C/C(=N/NC(=O)c1cccc(N2CCCC2=O)c1)c1ccncc1 | inactive: 102%
69 | O=S(=O)(CC(CN1CCCCC1)N1CCCCC1)c1ccc2ccccc2c1 (stereo not drawn) | inactive: 100%
70 | Cc1cccc(C(=O)Nc2ccc(CC(=O)O)cc2)c1 | inconclusive: 94%
71 | CCCCC(=O)Nc1ccc(NC(=S)NC(=O)CCCCl)cc1OC | inactive: 103%
72 | COCCn1cc(C(=O)NCCCN2CCC(C)CC2)c2c3ccccc3n(C)c2c1=O | inconclusive: 107%

Row | Structure (SMILES) | GTP binding activity (% of control)
73 | Cc1c(C)n(CC(O)CN2CCOCC2)c2ccccc12 (stereo not drawn) | inconclusive: 106%
74 | CC(C)C(=O)n1nc(-c2cccnc2)nc1NCc1ccc(F)cc1 | inconclusive: 93%
75 | COc1ccccc1N1CCN(c2ccc(Cl)nn2)CC1 | inconclusive: 93%
76 | CCOC(=O)c1cccc(NC(=S)NCc2ccc(C)cc2)c1 | inactive: 98%
77 | COc1ccc(C)cc1NC(=O)c1cc2c(CO)cnc(C)c2oc1=N | inactive: 100%
78 | COC(=O)c1cn(NC(=O)Cn2nc([N+](=O)[O-])c(Br)c2C)c(=O)c2ccccc12 | inactive: 86%
79 | Cc1ccc(C)c(N2CCN(C(=O)c3ccc(CS(=O)(=O)c4ccccc4C)o3)CC2)c1 | inactive: 87%
80 | Cc1noc(NS(=O)(=O)c2ccc(NC(=O)CCN3C(=O)c4ccccc4C3=O)cc2)c1C | inconclusive: 92%
81 | COC(=O)[C@H]1C2CCC(C(=O)OC)(CC2)[C@H]1C(=O)OC | inconclusive: 104%
82 | Cc1ccc(N=Nc2c(N)nn3c(N)c(C#N)c(C)nc23)cc1 | inconclusive: 91%
83 | OCC1(Cc2ccccc2)CCCN(Cc2ccn[nH]2)C1 (stereo not drawn) | inactive: 97%
84 | CCOC(=O)c1c(NC(=O)c2cccs2)sc(C(=O)N(C)C)c1C | inconclusive: 108%
85 | CCOC(=O)c1ccc(NNC(C)=O)c([N+](=O)[O-])c1 | inactive: 99%
86 | Cc1cc(C(=O)N/N=C/c2cc(Br)ccc2OC(=O)c2ccc(Br)cc2)n[nH]1 | inconclusive: 105%
87 | COc1cccc(CN2CCC(C(=O)N3CCN(c4ccccc4F)CC3)CC2)c1OC | inconclusive: 105%
88 | O=C(Nc1nnc(CC(=O)N2CCOCC2)s1)C1COc2ccccc2O1 (stereo not drawn) | inconclusive: 106%
89 | Cc1ccc2c(c1)NC(=O)C(CC(=O)NCCN(C)C)O2 (stereo not drawn) | inconclusive: 108%
90 | N#CC(C#N)=C1C=C2C=C(N3CCCCCC3)CCC2CC1 (stereo not drawn) | inconclusive: 119%
91 | Cn1nnc2cc(NC(=O)N3CC4(C)CC3CC(C)(C)C4)ccc21 (stereo not drawn) | inconclusive: 104%
92 | COc1ccc2[nH]c3c(=O)n4c(nc3c2c1)SCCC4 | inconclusive: 92%
93 | Cc1nnsc1C(=O)NNS(=O)(=O)c1ccccc1 | inconclusive: 106%
